Measured values as given in PubChem BioAssay AID493208 (National Center for Advancing Translational Sciences (NCATS), 2011).
Screen size: about 44,000 compounds; about 340 (0.77%) were called active. Not shown: some 5% with an inconclusive outcome. Calls follow the shape of the dose curve; as a rule, active = well fitted inhibition curve with a large enough effect; inconclusive = small, poorly fitted or top-dose-only effect; inactive = flat fitted curve, though single readings scatter. The list shows a part of the results.

Assay: Acumen qHTS Assay for Inhibitors of the mTORC1 Signaling Pathway in MEF (Tsc2-/-, p53-/-) Cells: Sytravon;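 also: plate controls were DMSO for no effect and rapamycin for full effect; nearly all actives have a fitted effect of over 50% in size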
Details: phospho-rpS6 immunofluorescence/PI, 24 h; series mostly up to 38.3 µM; activity change, negative = inhibition: at the top concentration
Outline: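 Read-out: phospho-S6 Alexa-488 intensity over PI intensity per well, scored as % active cells using thresholds from rapamycin (7.5 nM) and DMSO controls. Tsc2-/-, p53-/- MEFs exposed to compound for 24 h; PI cell count recorded as viability.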

Activity change, negative = inhibition, inactive:
CC(=O)c1cccc(NC(=O)c2cccn2-c2nnc(N3CCCCC3)s2)c1 0%
COc1ccccc1Cn1c(CNS(=O)(=O)c2ccccc2Cl)nc2cccnc21 3.27%
CCOC(=O)Cn1c(=O)oc2cc(S(=O)(=O)N3CCN(c4ccccc4F)CC3)ccc21 -0.342%
CCOC(=O)c1ccc2c(c1)N(CC(=O)Nc1ccc(C)cc1C)C(=O)c1ccccc1S2 2.93%
CCN(CC)C(=O)Cn1cc(SCC(=O)Nc2ccccc2F)c2ccccc21 -16.1%
COc1ccc(NC(=O)c2nnn(Cc3nc(-c4cc(OC)c(OC)c(OC)c4)oc3C)c2C)cc1 -9.81%
COc1ccc(-c2nc(C(N)=O)c3c(n2)n(-c2ccccc2OC)c(=O)n3C)c(OC)c1 0.251%
O=C(c1ccc2c(c1)N(Cc1ccc(Cl)cc1)C(=O)c1ccccc1S2=O)N1CCN(c2ccccc2F)CC1 (configuration not stated) 2.02%
O=C(c1ccc(F)cc1)N1CCC(c2nc3ccccc3o2)CC1 -6.69%
CSc1cccc(NC(=O)C2CCN(c3ncnc4c3nc3n4CCCCC3)CC2)c1 4.22%
CCOc1ccccc1NC(=O)C(NS(=O)(=O)c1ccc2c(c1)CCC(=O)N2)c1ccccc1 (configuration not stated) -0.821%
O=C(NC1CCCCCC1)c1cc2c(Cl)nc3ccccc3c2s1 0.401%
CC(C)NC(=O)CC(=O)Nc1ccc2nc3n(c(=O)c2c1)CCCCC3 7.27%
COc1ccc(CNC(=O)c2ccc3c(c2)N(C)C(=O)C2CCCCN32)cc1OC (configuration not stated) 2.16%
CCOC(=O)c1ccc(NC(=O)C2=C(C)Nc3nc(SCc4ccc(Cl)cc4)nn3C2c2ccc(C)cc2)cc1 (configuration not stated) 2.57%
CCCCOc1ccc(C(=O)N2CCC(c3nc4ccccc4o3)CC2)cc1 -1.05%
CCOc1ccc(CC(=O)NCCc2csc(-c3ccc(C(F)(F)F)cc3)n2)cc1 -17.1%
Cc1nn(C(=O)COc2ccccc2)c(C)c1Sc1ccccc1 -23%
CC1CCN(C(=O)CN2CCSc3ccccc32)CC1 27.2%
CC(NC(=O)c1nn(C)c2c1CSc1ccccc1-2)c1ccccc1 (configuration not stated) -8.98%
O=C(Nc1ccc(SC(F)F)cc1)c1cc(-c2cccs2)on1 -1.26%
COc1ccc(OC)c(NC(=O)CSc2nc(-c3ccccc3C)nc3cc(=O)[nH]n23)c1 -1.34%
COC(=O)c1sc2cccc(F)c2c1S(=O)(=O)N1CCN(c2ccccc2OC)CC1 -17.5%
Cc1ccc(-c2cc(NC(=O)C(C)Oc3ccc(C)c(C)c3)on2)cc1 (configuration not stated) -2.04%
O=C(NCCc1ccccc1)c1ccc2c(c1)CCN2S(=O)(=O)c1ccc(Br)cc1 -1.46%
CC(=O)c1cccc(NC(=O)CCCN2C(=O)COc3ccc(C)cc32)c1 -10.1%
CCOc1ccc(C(=O)Nc2nnc(S(=O)(=O)N(CC)c3ccccc3C)s2)cc1 2.56%
CCNc1nc2c(c(=O)[nH]c(=O)n2C)n1CC(O)COc1ccc(Cl)cc1Cl (configuration not stated) -26.6%
COc1cc(OC)cc(C(=O)N2CCC(c3ccncc3)CC2)c1 -7.98%
O=C(CCS(=O)(=O)c1cccs1)Nc1ccc(C(=O)Nc2cccc(Cl)c2)cc1 -5.15%
O=C(Cc1ccccc1)Nc1c(C(=O)N2CCN(c3ccc(F)cc3)CC2)oc2ccccc12 -12.2%
COc1ccc(CNc2ccc3cc(S(=O)(=O)N4CCCCC4)ccc3n2)cc1 -4.85%
Cc1ccc(C)c(NC(=O)CN2C(=O)CSc3nc(C)cc(C)c32)c1 -4.04%
Cc1ccc(CNC(=O)CN(c2ccc(C(C)C)cc2)S(=O)(=O)c2c(C)n[nH]c2C)cc1 7.1%
COc1cccc(NC(=O)CN2CCCN(S(=O)(=O)c3ccc(Br)cc3)CC2)c1 2.19%
COc1ccc(Cn2ccnc2SCC(=O)Nc2ccc(C)cc2C)cc1 2.27%
CC(C)(C)CC(=O)Nc1nnc2n1CCS2 -9.32%
CCCC(=O)NCC(c1ccc2c(c1)OCO2)N1CCOCC1 (configuration not stated) 3.77%
O=C(COc1ccc(Cl)cc1)Nc1ccccc1C(=O)OCc1cc(=O)n2ccsc2n1 0%
COc1ccccc1CNC(=O)CN1C(=O)CSc2c1c(C)nn2-c1ccccc1 -21.1%
CC(=O)c1ccc(NS(=O)(=O)c2cc3[nH]c(=O)c(=O)[nH]c3cc2C)cc1 0.0432%
Cc1ccc(C)c(N2CCN(C(=O)Cn3ncc4c(=O)oc5ccc(C)cc5c43)CC2)c1 -1.3%
COc1ccc(S(=O)(=O)NCCc2nnc3ccc(SCC(=O)Nc4ccc(C(F)(F)F)cc4)nn23)cc1 0.101%
CCc1ccc(CSc2nc(-c3ccccc3OC)nc3c2Cc2c(CO)cnc(C)c2O3)cc1 3.83%
CCCn1c(=N)c(C(=O)NCc2cccnc2)cc2c(=O)n3cc(C)ccc3nc21 5.1%
COc1cccc(/C=C/c2nc(C#N)c(N3CCCCC3)o2)c1 -0.67%
O=C(c1cnc2cc(-c3ccccc3)nn2c1)c1cc([N+](=O)[O-])ccc1O -4.69%
O=C(C1CCCN(S(=O)(=O)c2cccc3nonc23)C1)N1CCN(c2cccc(Cl)c2)CC1 (configuration not stated) -6.3%
Cc1ccccc1Cn1nc(C)c(NC(=O)c2cc(-c3ccc(F)cc3)on2)c1C 2.58%
CCOc1ccccc1CNc1ncnc2c1nc1n2CCCC1 -9.18%
CSc1ccc(CCNC(=O)CCc2c(C)nc3c(-c4ccccc4)c(C)nn3c2C)cc1 -18.7%
COC(=O)c1ccc2c(=O)n(CCCCCC(=O)NCc3ccccc3)c(=O)[nH]c2c1 -0.834%
Cc1cccc(-n2c3c(cc(-c4nc(-c5ccc(Cl)cc5)cs4)c2=O)C(=O)CC(C)(C)C3)c1 4.69%
O=C(CN1CCSc2ccccc21)N1CCN(c2ccccc2)CC1 6.01%
CCn1cc(C2N3CC4(CC)CN2CC(CC)(C3)C4=O)c2ccccc21 (configuration not stated) 2.99%
CCOC(=O)c1c(NC(=O)/C=C/c2ccc(OC)c(OC)c2)sc(C(C)=O)c1C -4%
CCc1ccc(NC(=O)c2cc(-c3cccs3)on2)cc1 -3.06%
CCOC(=O)c1cnc2cc(C(F)(F)F)ccc2c1N1CCN(c2ccc(F)cc2)CC1 -2.06%
COc1ccccc1CNC(=O)C1CCCN(c2nn3cc(-c4ccc(F)cc4)nc3s2)C1 (configuration not stated) 0.133%
CCOc1ccc(CCNC(=O)CS(=O)Cc2nc(-c3ccc(C)cc3)oc2C)cc1OCC (configuration not stated) 0.116%
COC(=O)c1ccccc1NC(=O)CSc1nc(-c2ccccc2)cc(C(F)(F)F)n1 -3.5%
CCOC(=O)c1c(C)[nH]c(C)c1S(=O)(=O)N1CCC(C(=O)Nc2ccc(F)cc2F)CC1 0.724%
